Measured values taken from patent US11207320B2, “Compositions and methods for cancer expressing PDE3A or SLFN12” (The Broad Institute, Inc., priority 2015, dated 2021).
The source gives many values for each of these; only a part stands here.

System: 766 cancer cell lines
Assay: Large-scale cell-line viability measurements (766 cancer cell lines, 72 h, AUC)
Format: cell-based, human
Procedure: Cell lines were treated for 72 hours with concentrations ranging from 66.4 μM-2 nM in 2-fold step dilutions.
To characterize cellular sensitivity to DNMDP further, 766 genomically characterized cancer cell lines were screened for DMNDP sensitivity at concentrations ranging from 66.4 μM to 2 nM in 2-fold dilution steps for 72 hours. From these cell lines, 22 cell lines were categorized as sensitive with a robust Z-score lower than −4, which represented multiple lineages including multiple melanoma cell lines, amongst others (Table 1).
The sensitivity of […] cancer cell lines (CCLs) was measured drawn from 23 different lineages to DNMDP. Each cell line was plated in its preferred media in white opaque 1536-plates at a density of 500 cells/well. After incubating overnight, DNMDP was added by acoustic transfer at 16 concentrations ranging from 66.4 μM-2 nM in 2-fold steps in duplicate (Labcyte Echo 555, Labcyte Inc., Sunnyvale, Calif.). After 72 hours treatment, cellular ATP levels were measured as a surrogate for viability (CELLTITERGLO®, Promega Corporation, Madison, Wis.) according to manufacturer's protocols using a ViewLux Microplate Imager (PerkinElmer, Waltham, Mass.) and normalized to background (media-only) and vehicle (DMSO)-treated control wells.
Concentration response curves were fit using nonlinear fits to 2- or 3-parameter sigmoid functions through all 16 concentrations with the low-concentration asymptote set to the DMSO-normalized value, and an optimal 8-point dose curve spanning the range of compound-sensitivity was identified. The area under the 8-point dose curve (AUC) was computed by numeric integration as a metric for sensitivity for further analysis. Similar sensitivity measurements have been obtained for a collection of 480 other compounds, enabling analyses that identify cell lines responding uniquely to DNMDP (see Broad Institute Cancer Therapeutics Response Portal, a dataset to identify comprehensively relationships between genetic and lineage features of human cancer cell lines and small-molecule sensitivities for complete list of compounds).

[1] = YD8 (UPPER AERODIGESTIVE TRACT), 72 hours
[2] = YD10B (UPPER AERODIGESTIVE TRACT), 72 hours
[3] = YH13 (CENTRAL NERVOUS SYSTEM), 72 hours
[4] = cell line A3KAW (HAEMATOPOIETIC AND LYMPHOID TISSUE)
[5] = cell line A4FUK (HAEMATOPOIETIC AND LYMPHOID TISSUE)
[6] = cell line A172 (CENTRAL NERVOUS SYSTEM)
[7] = cell line A253 (SALIVARY GLAND)
[8] = cell line AM38 (CENTRAL NERVOUS SYSTEM)
[9] = cell line AML193, HAEMATOPOIETIC AND LYMPHOID TISSUE, 72 hours
[10] = cell line AMO1, HAEMATOPOIETIC AND LYMPHOID TISSUE, 72 hours
[11] = cell line BFTC905, URINARY TRACT, 72 hours
[12] = cell line BFTC909, KIDNEY, 72 hours
[13] = cell line BHY (UPPER AERODIGESTIVE TRACT)
[14] = cell line BICR16 (UPPER AERODIGESTIVE TRACT)
[15] = cell line BICR56, UPPER AERODIGESTIVE TRACT, 72 hours
[16] = cell line BL70 (HAEMATOPOIETIC AND LYMPHOID TISSUE)
[17] = cell line BT474, BREAST, 72 hours
[18] = cell line C2BBE1 (LARGE INTESTINE)
[19] = cell line CAL29 (URINARY TRACT)
[20] = cell line CAL33, UPPER AERODIGESTIVE TRACT, 72 hours
[21] = cell line CAL120, BREAST, 72 hours
[22] = cell line CAL148, BREAST, 72 hours

## CCN(CC)c1ccc(C2=NNC(=O)CC2C)cc1[N+](=O)[O-] (centres unmarked) [DNMDP, 6-(4-(diethylamino)-3-nitrophenyl)-5-methyl-4,5-dihydropyridazin-3(2H)-one]
X8305C (THYROID), 72 hours
  DNMDP AUC: 5.0004
  Robust Z-score: −1.715
X8505C (THYROID), 72 hours
  DNMDP AUC: 4.3418
  Robust Z-score: −2.407
[1]
  DNMDP AUC: 6.4856
  Robust Z-score: −0.1565
[2]
  DNMDP AUC: 6.4579
  Robust Z-score: −0.1855
[3]
  DNMDP AUC: 4.7007
  Robust Z-score: −2.03
ZR7530 (BREAST), 72 hours
  DNMDP AUC: 6.4339
  Robust Z-score: −0.2107
[4]
  DNMDP AUC: 6.6031
  Robust Z-score: −0.03312
[5]
  DNMDP AUC: 6.7317
  Robust Z-score: 0.1019
Cell line A101D (SKIN)
  DNMDP AUC: 6.8089
  Robust Z-score: 0.1829
[6]
  DNMDP AUC: 6.6858
  Robust Z-score: 0.05369
Cell line A204 (SOFT TISSUE)
  DNMDP AUC: 6.7338
  Robust Z-score: 0.1041
[7]
  DNMDP AUC: 6.6238
  Robust Z-score: −0.01139
Cell line A375 (SKIN)
  DNMDP AUC: 6.9117
  Robust Z-score: 0.2908
Cell line A2780 (OVARY)
  DNMDP AUC: 6.5613
  Robust Z-score: −0.07699
Cell line ACCMESO1 (PLEURA)
  DNMDP AUC: 7.0033
  Robust Z-score: 0.387
Cell line ACHN (KIDNEY)
  DNMDP AUC: 6.5518
  Robust Z-score: −0.08696
Cell line AGS (STOMACH)
  DNMDP AUC: 6.9378
  Robust Z-score: 0.3182
[8]
  DNMDP AUC: 6.9715
  Robust Z-score: 0.3536
[9]
  DNMDP AUC: 7.3753
  Robust Z-score: 0.7774
[10]
  DNMDP AUC: 7.2764
  Robust Z-score: 0.6736
Cell line AN3CA (ENDOMETRIUM)
  DNMDP AUC: 6.9081
  Robust Z-score: 0.287
Cell line BEN (LUNG)
  DNMDP AUC: 7.0341
  Robust Z-score: 0.4193
[11]
  DNMDP AUC: 7.3514
  Robust Z-score: 0.7523
[12]
  DNMDP AUC: 7.9189
  Robust Z-score: 1.348
Cell line BHT101 (THYROID)
  DNMDP AUC: 6.6351
  Robust Z-score: 0.0004723
[13]
  DNMDP AUC: 6.8627
  Robust Z-score: 0.2394
[14]
  DNMDP AUC: 7.0071
  Robust Z-score: 0.3909
[15]
  DNMDP AUC: 7.2108
  Robust Z-score: 0.6048
[16]
  DNMDP AUC: 6.8619
  Robust Z-score: 0.2385
Cell line BT20 (BREAST)
  DNMDP AUC: 6.8931
  Robust Z-score: 0.2713
[17]
  DNMDP AUC: 7.2422
  Robust Z-score: 0.6377
[18]
  DNMDP AUC: 6.9144
  Robust Z-score: 0.2936
Cell line CAKI1 (KIDNEY)
  DNMDP AUC: 6.7755
  Robust Z-score: 0.1478
Cell line CAKI2 (KIDNEY)
  DNMDP AUC: 6.614
  Robust Z-score: −0.02168
Cell line CAL12T (LUNG)
  DNMDP AUC: 6.5741
  Robust Z-score: −0.06356
[19]
  DNMDP AUC: 7.0497
  Robust Z-score: 0.4357
[20]
  DNMDP AUC: 7.2038
  Robust Z-score: 0.5974
Cell line CAL62 (THYROID)
  DNMDP AUC: 6.721
  Robust Z-score: 0.09064
[21]
  DNMDP AUC: 7.32
  Robust Z-score: 0.7194
[22]
  DNMDP AUC: 7.1477
  Robust Z-score: 0.5385
Cell line CAL851 (BREAST)
  DNMDP AUC: 6.6074
  Robust Z-score: −0.0286
Cell line CALU1, LUNG, 72 hours
  DNMDP AUC: 7.8185
